According to the supplement of paper PMC12217912:
Some of the results follow. Sequences were assembled here from the parent chain. Inactive controls read about 0.05.

B1: TEV protease; numbered along this chain (parent)
chain: MGESLFKGPRDYNPISSSICHLTNESDGHTTSLYGIGFGPFIITNKHLFRRNNGTLVVQSLHGVFKVKDTTTLQQHLVDGRDMIIIRMPKDFPPFPQKLKFREPQREERICLVTTNFQTKSMSSMVSDTSCTFPSGDGIFWKHWIQTKDGQCGSPLVSTRDGFIVGIHSASNFTNTNNYFTSVPKNFMELLTNQEAQQWVSGWRLNADSVLWGGHKVFMVKPEEPFQPVKEATQL

Variants of: B1
Assay: raw area under fraction-flipped curve 0-4 h after induction (AUC4h, not background-subtracted), DNA-recorder readout of cleavage of the substrate (dimensionless); higher = more cleavage of the substrate by the protease variant
Conditions: temperature: 34 °C; time window: 0-4 h after rhamnose induction
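Note: Bxb1 expression induced with 0.2% (w/v) L-rhamnose at OD600 near 0.5, cultures sampled hourly, flipped fraction per protease–substrate barcode pair counted by paired-end Illumina sequencing.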

Variant | area with substrate ENLKFQS | area with substrate ENLIFQS | area with substrate ENLPFQS | area with substrate ENLVFQS | area with substrate ENLNFQS | area with substrate ENLQFQS | area with substrate ENLTFQS | area with substrate ENLRFQS | area with substrate ENLLFQS | area with substrate ENLSFQS
MGESLFKGPRDYNPISSSICHLTNESDGHTTSLYGIGFGPFIITNKHLFRRNNGTLVVQSLHGVFKVKDTTTLQQHLVDGRDMIIIRMPKDFPPFPQKLKFREPQREERICLVTTNFQTKSMSSMVSDTSCTFPSGDGIFWKHWIQTKDGQCGSPLVSTRDGFIVGIHSASNFTNTNNYFTSVPKNFMELLTNQEAQQWVSGWRLNADSVTWGGHKVFMVKPEEPFQPVKEATQL [L211T] | 0.0822 |  |  |  |  |  |  |  |  | 
MGESLFKGPRDYNPISSSICHLTNESDGHTTSLYGIGFGPFIITNKHLFRRNNGTLVVQSLHGVFKVKDTTTLQQHLVDGRDMIIIRMPKDFPPFPQKLKFREPQREERICLVTTNFQTKSMSSMVSDTSCTFPSGDGIFWKHWIQTKDGQCGSPLVSTRDGFIVGIHSASNFTNTNNYFTSVPKNFMELLTNQEAQQWVSGWRLNADSVLNGGHKVFMVKPEEPFQPVKEATQL [W212N] |  | 0.0661 | 0.0374 | 0.0548 |  |  |  |  |  | 
MGESLFKGPRDYNPISSSICHLTNESDGHTTSLYGIGFGPFIITNKHLFRRNNGTLVVQSLHGVFKVKDTTTLQQHLVDGRDMIIIRMPKDFPPFPQKLKFREPQREERICLVTTNFQTKSMSSMVSDTSCTFPSGDGIFWKHWIQTKDGQCGSPLVSTRDGFIVGIHSASNFTNTNNYFTSVPKNFMELLTNQEAQQWVSGWRLPADSVLWGGHKVFMVKPEEPFQPVKEATQL [N206P] |  |  | 0.0637 |  | 0.0946 |  |  |  |  | 
MSESLFKGPRDYNPISSSICHLTNESDGHTTSLYGIGFGPFIITNKHLFRRNNGTLVVQSLHGVFKVKDTTTLQQHLVDGRDMIIIRMPKDFPPFPQKLKFREPQREERICLVTTNFQTKSMSSMVSDTSCTFPSGDGIFWKHWIQTKDGQCGSPLVSTRDGFIVGIHSASNFTNTNNYFTSVPKNFMELLTNQEAQQWVSGWRLNADSVLWGGHKVFMVKPEEPFQPVKEATQL [G2S] |  |  |  |  | 0.05 | 0.0743 | 0.0619 |  |  | 
MHESLFKGPRDYNPISSSICHLTNESDGHTTSLYGIGFGPFIITNKHLFRRNNGTLVVQSLHGVFKVKDTTTLQQHLVDGRDMIIIRMPKDFPPFPQKLKFREPQREERICLVTTNFQTKSMSSMVSDTSCTFPSGDGIFWKHWIQTKDGQCGSPLVSTRDGFIVGIHSASNFTNTNNYFTSVPKNFMELLTNQEAQQWVSGWRLNADSVLWGGHKVFMVKPEEPFQPVKEATQL [G2H] | 0.0695 |  | 0.0591 |  | 0.0815 | 0.0709 |  | 0.0782 |  | 
MGESLFKGPRDYNPISSSICHLTNESDGHTTSLYGIGFGPFIITNKHLFRRNNGTLVVQSLHGVFKVKDTTTLQQHLVDGRDMIIIRMPKDFPPFPQKLKFREPQREERICLVTTNFQTKSMSSMVSDTSCTFPSGDAIFWKHWIQTKDGQCGSPLVSTRDGFIVGIHSASNFTNTNNYFTSVPKNFMELLTNQEAQQWVSGWRLNADSVLWGGHKVFMVKPEEPFQPVKEATQL [G138A] |  |  |  |  | 0.0574 |  |  |  |  | 
MGESLFKGPRDYNPISSSICHLTNESDGHTTSLYGIGFGPFIITNKHLFRRNNGTLVVQSLHGVFKVKDTTTLQQHLVDGRDMIIIRMCKDFPPFPQKLKFREPQREERICLVTTNFQTKSMSSMVSDTSCTFPSGDGIFWKHWIQTKDGQCGSPLVSTRDGFIVGIHSASNFTNTNNYFTSVPKNFMELLTNQEAQQWVSGWRLNADSVLWGGHKVFMVKPEEPFQPVKEATQL [P89C] | 0.0653 |  |  | 0.0736 | 0.0602 |  |  | 0.0639 | 0.0529 | 
MGESLFKGPRDYNPISSSICHLTNESDGHTTSLYGIGFGPFIITNKHLFRRNNGTLVVQSLHGVFKVKDTTTLQQHLVDGRDMIIIRMAKDFPPFPQKLKFREPQREERICLVTTNFQTKSMSSMVSDTSCTFPSGDGIFWKHWIQTKDGQCGSPLVSTRDGFIVGIHSASNFTNTNNYFTSVPKNFMELLTNQEAQQWVSGWRLNADSVLWGGHKVFMVKPEEPFQPVKEATQL [P89A] | 0.0753 |  |  |  |  |  |  |  |  | 0.0579
MGESLFKGPRDYNPISSSICHLTNESDGHTTSLYGIGFGPFIITNKHLFRRNNGTLVVQSLHGVFKVKDTTTLQQHLVDGRDMIIIRMPKDFPPFPQKLKFREPQREERICLVTTNFQLKSMSSMVSDTSCTFPSGDGIFWKHWIQTKDGQCGSPLVSTRDGFIVGIHSASNFTNTNNYFTSVPKNFMELLTNQEAQQWVSGWRLNADSVLWGGHKVFMVKPEEPFQPVKEATQL [T119L] | 0.0823 |  |  |  |  |  |  |  |  | 
MGESLFKGPRDYNPISSSICHLTNESDGHTTSLYGIGFGPFIITNKHLFRRNNGTLVVQSLHGVFKVKDTTTLQQHLVDGRDMIIIRMPKDFPPFPQKLKFREPQREERICLVTTNFQTKSMSSMVSDTSCTFPSGDGIFWKHWIQSKDGQCGSPLVSTRDGFIVGIHSASNFTNTNNYFTSVPKNFMELLTNQEAQQWVSGWRLNADSVLWGGHKVFMVKPEEPFQPVKEATQL [T147S] | 0.0697 |  |  |  |  | 0.0535 |  |  |  | 
MGESLFKGPRDYNPISSSICHLTNESDGHTTSLYGIGFGPFIITNKHLFRRNNGTLVVQSLHGVFKVKDTTTLQQHLVDGRDMIIIRMPKDFPPFPQKLKFREPQREERICLVTTNFQTKSMSSMVSDTSCTFPSGDGIFWKHWIQTKDGQCGSPLVSTRDGFIVGIHSASNFENTNNYFTSVPKNFMELLTNQEAQQWVSGWRLNADSVLWGGHKVFMVKPEEPFQPVKEATQL [T174E] |  |  |  |  | 0.0758 |  |  |  |  | 
MGESLFKGPRDYNPISSSICHLTNESDGHTTSLYGIGFGPFIITNKHLFRRNNGTLVVQSLHGVFKVKDTTTLQQHLVDGRDMIIIRMPKDFPPFPQKLKFREPQREERICLVTTNFQTKSMSSMVSDTSCTFPSGDGIFWKHWIQTKDGQCGSPLVSTRDGDIVGIHSASNFTNTNNYFTSVPKNFMELLTNQEAQQWVSGWRLNADSVLWGGHKVFMVKPEEPFQPVKEATQL [F163D] |  |  | 0.0633 |  |  |  |  |  |  | 
